# Measured values as given in the supplement of paper PMC9446081.
# Hit rate of the full screen: of about 39,000 compounds, about 220 (0.56%) showed activity. Some of the results follow.
# Tested on: Escherichia coli K-12 BW25113
# Assay: relative growth (OD600 normalised to plate interquartile mean) (fraction); higher = less growth inhibition, active = 0.2 or less
# Conditions: 50 µM; LB; incubation time: overnight (16-24 h)
# 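Also: static incubation at 37 °C against the wild-type strain, values averaged over two biological replicates.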
row,SMILES,relative growth
1,C[C@H]1CCCCO[C@H](CN(C)S(=O)(=O)c2ccc(Cl)cc2)[C@@H](C)CN([C@@H](C)CO)C(=O)c2cc(NC(=O)C3CCCCC3)ccc2O1,inactive: 1
2,C[C@@H]1CN([C@H](C)CO)C(=O)c2cccc(NC(=O)Nc3cccc4ccccc34)c2O[C@@H]1CN(C)C(=O)Nc1ccc(F)cc1,inactive: 1.01
3,O=C(C[C@@H]1CC[C@@H]2[C@H](COC[C@@H](O)CN2C(=O)Nc2cccc(Cl)c2)O1)NCc1ccccc1F,inactive: 0.813
4,CC1(C)CC[C@]2(C(=O)O[C@@H]3O[C@H](CO[C@@H]4O[C@H](CO)[C@@H](O)[C@H](O)[C@H]4O)[C@@H](O)[C@H](O)[C@H]3O)CC[C@]3(C)C(=CC[C@H]4[C@@]5(C)CC[C@H](O[C@@H]6OC[C@H](O)[C@H](O)[C@H]6O)C(C)(C)[C@@H]5CC[C@]43C)[C@@H]2C1,inactive: 1.01
5,C[C@H](CO)N1C[C@H](C)[C@H](CN(C)S(=O)(=O)c2ccc(C#N)cc2)Oc2ncc(C#CC(C)(C)O)cc2C1=O,inactive: 0.994
6,O=C(/C=N/O)NCc1ccccn1,inactive: 1
7,Cc1ccc(S(=O)(=O)Nc2cccc3c2O[C@H](CN(C)Cc2ccc(C(F)(F)F)cc2)[C@@H](C)CN([C@H](C)CO)C3=O)cc1,inactive: 1
8,C[C@@H]1CCCCO[C@@H](CN(C)C(=O)Nc2ccccc2)[C@H](C)CN([C@@H](C)CO)C(=O)c2cc(NC(=O)Nc3ccc(C(F)(F)F)cc3)ccc2O1,inactive: 1.04
9,C[C@@H]1CCCCO[C@@H](CN(C)S(=O)(=O)c2cccs2)[C@H](C)CN([C@@H](C)CO)C(=O)c2cc(NC(=O)Nc3ccc(F)cc3)ccc2O1,inactive: 1.04
10,CC(=O)O[C@@H]1[C@@H](O[C@@H]2O[C@H](CO)[C@@H](O)[C@H](O)[C@H]2O)[C@@H](O)[C@H](OC[C@H]2O[C@@H](Oc3c(-c4ccc(O)c(O)c4)oc4cc(O)cc(O)c4c3=O)[C@H](O)[C@@H](O)[C@H]2O)O[C@H]1C,inactive: 0.986
11,C[C@H]1CN([C@@H](C)CO)C(=O)Cc2cc(NC(=O)CCN3CCOCC3)ccc2O[C@H]1CN(C)C(=O)NC1CCCCC1,inactive: 1.04
12,CNC(=O)C[C@@H]1CC[C@H]2[C@@H](COC[C@H](O)CN2C(=O)Nc2cccc(OC)c2)O1,inactive: 0.983
13,C[C@@H]1CN([C@@H](C)CO)C(=O)Cc2cc(NS(=O)(=O)c3cn(C)cn3)ccc2O[C@@H]1CN(C)S(=O)(=O)c1ccccc1,inactive: 1
14,C[C@H](CO)N1C[C@H](C)[C@@H](CN(C)Cc2ccccc2)OCCCC[C@H](C)Oc2ccc(NC(=O)Nc3ccc4c(c3)OCO4)cc2C1=O,inactive: 0.988
15,O=C(C[C@@H]1CC[C@H]2[C@@H](COC[C@H](O)CN2Cc2ccccc2F)O1)N[C@@H]1CCN(Cc2ccccc2)C1,inactive: 0.999
16,C[C@@H]1CCCCO[C@@H](CN(C)C(=O)CCC(F)(F)F)[C@@H](C)CN([C@@H](C)CO)C(=O)c2cc(NC(=O)Nc3ccccc3)ccc2O1,inactive: 1
17,Cc1ccc(S(=O)(=O)Nc2ccc3c(c2)CC(=O)N([C@H](C)CO)C[C@H](C)[C@H](CN(C)C(=O)Nc2cccc4ccccc24)O3)cc1,inactive: 1
18,CCOC(=O)C[C@@H](N)c1cccc(O)c1,inactive: 0.999
19,C[C@H](CO)N1C[C@H](C)[C@@H](CN(C)C(=O)C2CCCCC2)OCCCC[C@H](C)Oc2ccc(NS(=O)(=O)c3cccs3)cc2C1=O,inactive: 1
20,C[C@@H]1CN([C@H](C)CO)C(=O)c2cc(NC(=O)Nc3ccc4c(c3)OCO4)ccc2O[C@H]1CN(C)Cc1ccc(-c2ccccc2)cc1,inactive: 1.04
21,CCOC(=O)Nc1ccc(NCc2ccc(F)cc2)nc1N.O=C(O)C=CC(=O)O,inactive: 0.989
22,C[C@@H]1CCCCO[C@@H](CN(C)C(=O)Nc2ccc(F)cc2)[C@@H](C)CN([C@H](C)CO)C(=O)c2cc(NS(=O)(=O)c3ccc(F)cc3)ccc2O1,inactive: 0.985
23,C[C@H]1CN([C@@H](C)CO)C(=O)c2cccc(NC(=O)c3ccc(-c4nccs4)cc3)c2O[C@@H]1CN(C)Cc1ccc(Oc2ccccc2)cc1,inactive: 1.05
24,C[C@@H]1CN([C@H](C)CO)C(=O)c2cc(NS(=O)(=O)c3cn(C)cn3)ccc2O[C@H]1CN(C)S(=O)(=O)c1ccccc1,inactive: 1
25,O=C(C[C@@H]1CC[C@H]2[C@@H](COC[C@H](O)CN2S(=O)(=O)c2cccnc2)O1)NCc1ccc(Cl)c(Cl)c1,inactive: 0.992
26,C[C@@H]1CCCCO[C@@H](CN(C)C(=O)Nc2ccc(F)cc2)[C@H](C)CN([C@@H](C)CO)C(=O)c2cc(NC(=O)Nc3cccc4ccccc34)ccc2O1,inactive: 1.02
27,Cc1ccc(S(=O)(=O)N(C)C[C@@H]2Oc3ccc(NS(=O)(=O)c4cn(C)cn4)cc3C(=O)N([C@H](C)CO)C[C@H]2C)cc1,inactive: 1.01

row,SMILES,relative growth
1,C[C@@H]1CO[C@]2(O[C@H]3C[C@H]4[C@H]5C[C@H](O[C@H]6O[C@@H](C)[C@@H](O)[C@@H](O[C@@H]7O[C@@H](C)[C@H](O)[C@@H](O)[C@H]7O)[C@@H]6O)[C@H]6C[C@@H](O)CC[C@]6(C)[C@@H]5CC[C@]4(C)[C@H]3[C@@H]2C)[C@@H](O)C1,inactive: 1
2,CCNC(=O)C[C@@H]1C=C[C@@H](NC(=O)C2CC2)[C@H](CO)O1,inactive: 0.98
3,C[C@@H]1CCCCO[C@@H](CN(C)CC2CC2)[C@@H](C)CN([C@H](C)CO)C(=O)c2cc(NC(=O)Cc3ccccc3)ccc2O1,inactive: 0.966
4,C[C@@H]1CCCCO[C@@H](CN(C)Cc2ccc(C(=O)O)cc2)[C@@H](C)CN([C@@H](C)CO)C(=O)c2cc(NS(=O)(=O)c3ccc(F)cc3)ccc2O1,inactive: 1.02
5,CS(=O)(=O)Nc1ccc2c(c1)[C@H]1C[C@H](CC(=O)NCc3ccc(-c4ccccc4)cc3)O[C@H](CO)[C@H]1O2,inactive: 1
6,C[C@@H]1CN([C@@H](C)CO)C(=O)c2cccc(NC(=O)CCCCCC(=O)Nc3ccccc3N)c2O[C@@H]1CN(C)Cc1ccc(Cl)c(Cl)c1,inactive: 1.04
7,O=C(C[C@@H]1CC[C@H]2[C@@H](COC[C@H](O)CN2S(=O)(=O)c2ccc(F)cc2)O1)N[C@H]1CCN(Cc2ccccc2)C1,inactive: 1.01
8,CC(CCC(=O)O)C1CCC2C3C(O)CC4CC(O)CCC4(C)C3CC(O)C12C (centres undefined),inactive: 1.08
9,C[C@H](CO)N1C[C@H](C)[C@@H](CN(C)Cc2ccccc2)Oc2ccc(NS(=O)(=O)c3cn(C)cn3)cc2C1=O,inactive: 0.929
10,Cc1noc(C)c1NC(=O)Nc1ccc2c(c1)C(=O)N([C@@H](C)CO)C[C@@H](C)[C@@H](CN(C)C(=O)Nc1ccc3c(c1)OCO3)OCCCC[C@@H](C)O2,inactive: 0.984
11,Cc1noc(C)c1NC(=O)N(C)C[C@H]1Oc2ccc(NC(=O)CCN3CCOCC3)cc2CC(=O)N([C@@H](C)CO)C[C@@H]1C,inactive: 0.996
12,COc1ccc(NC(=O)Nc2ccc3c(c2)C(=O)N([C@@H](C)CO)C[C@@H](C)[C@@H](CN(C)Cc2ccc(C(=O)O)cc2)OCCCC[C@@H](C)O3)cc1,inactive: 1.01
13,C[C@H]1CN([C@@H](C)CO)C(=O)Cc2cc(NC(=O)Nc3ccc(C(F)(F)F)cc3)ccc2O[C@@H]1CN(C)S(=O)(=O)c1ccc(Cl)cc1,inactive: 1.01
14,C[C@H]1CN([C@@H](C)CO)C(=O)c2cc(NC(=O)CCCN(C)C)ccc2O[C@H]1CN(C)C(=O)NC1CCCCC1,inactive: 0.987
15,C[C@H]1CN([C@@H](C)CO)C(=O)c2cccc(NS(=O)(=O)c3ccc(Cl)cc3)c2O[C@H]1CN(C)Cc1ccc(-c2ccccc2)cc1,inactive: 1.03
16,CC1OC(OC2C(Oc3cc(O)c4c(=O)cc(-c5ccc(O)cc5)oc4c3)OC(CO)C(O)C2O)C(O)C(O)C1O (centres undefined),inactive: 1.08
17,Cc1noc(C)c1S(=O)(=O)Nc1ccc2c(c1)CC(=O)N([C@@H](C)CO)C[C@@H](C)[C@@H](CN(C)C(=O)Nc1ccccc1)O2,inactive: 0.986
18,O=C(C[C@H]1CC[C@H](NC(=O)Nc2ccc3c(c2)OCO3)[C@H](CO)O1)NCCCN1CCOCC1,inactive: 0.981
19,C[C@H]1CN([C@@H](C)CO)C(=O)c2cc(/C=C/c3ccccc3)cnc2O[C@@H]1CN(C)C(=O)C1CCOCC1,inactive: 0.98
20,CO[C@@H]1CN(C)C(=O)c2cc(NS(=O)(=O)CC(F)(F)F)ccc2OC[C@@H](C)N(C(=O)NC(C)C)C[C@@H]1C,inactive: 0.991
21,COC(=O)C[C@H]1CC[C@@H]2[C@@H](COc3ccc(NS(=O)(=O)c4ccccc4Cl)cc3C(=O)N2C)O1,inactive: 1.06
22,C[C@@H]1CN([C@H](C)CO)C(=O)c2cc(C#C[C@@H](C)O)cnc2O[C@H]1CN(C)C(=O)CN1CCOCC1,inactive: 0.996
23,COc1cccc(S(=O)(=O)N[C@H]2C=C[C@@H](CC(=O)NC3CCC3)O[C@@H]2CO)c1,inactive: 1
24,C[C@@H]1CCCCO[C@@H](CN(C)C(=O)c2ccccc2)[C@@H](C)CN([C@H](C)CO)C(=O)c2cc(NS(=O)(=O)c3cccs3)ccc2O1,inactive: 1.01
25,O=C(C[C@H]1C[C@@H]2c3cc(NC(=O)Nc4ccc(C(F)(F)F)cc4)ccc3O[C@@H]2[C@@H](CO)O1)NCCc1ccccc1,inactive: 0.963
26,Cn1c(Cl)cnc1CO,inactive: 0.983
27,C[C@@H]1CN([C@@H](C)CO)S(=O)(=O)c2ccc(C#CCN(C)C)cc2O[C@H]1CN(C)Cc1ccccc1F,inactive: 0.99
